According to PMC12136788:
Some of the results follow.

T1: UNK ZnF1-3 (human, UniProt Q9C0B0 31-174)
T1 sequence: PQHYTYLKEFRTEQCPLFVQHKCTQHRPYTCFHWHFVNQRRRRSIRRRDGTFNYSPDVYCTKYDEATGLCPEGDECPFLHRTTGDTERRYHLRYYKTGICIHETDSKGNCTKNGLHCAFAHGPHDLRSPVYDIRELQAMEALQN

B1: chr4:115894766:115894767:+_ENSMUSG00000028698_ENSMUST00000030464|mus_hu|mus_mus_mus_hu_True|48_98 (ssRNA)
RNA: GGGAGUUCUACAGUCCGACGAUCUUCCACACGGAAAGUACUUGGGGGUUUUCCAACGGCCAGUACCAGUCCGGCCAAACUACCCGAUGAGGACAAGCCCCCUCUCUCCUACAGAACACAACAAAAUGCCCCCGAACUUUCAAGCAACAGAGGAUUGAGCAUCA
B2: chr1:60041781:60041782:+_ENSMUSG00000041040_ENSMUST00000036540|mus_hu|mus_mus_mus_hu_False|88_108 (ssRNA)
RNA: GGGAGUUCUACAGUCCGACGAUCAAGAGGAGUGAAUUAAAGUAAAUCAAAUUUAGUCAAAUUUUCUUUUAUUUUCCUUCACAAAAGAAAAUCUUUAUAACCCAGUCCUAGUCUUGGACAUAGUGAAAGCUAUAAAUUCUGACUCAACAGAGGAUUGAGCAUCA
B3: chr2:202488911:202488912:-_ENSG00000155755_ENST00000286196|hu_mus|hu_hu_hu_mus_False|18_108 (ssRNA)
RNA: GGGAGUUCUACAGUCCGACGAUCAUUUAACAUUUUUUCAUAAUCUCCAGUAGCAUUUCAGCAUUAUGUAACAAAAGCUCAAUUGUAAAUACAUGUAUCUUAUAAAAAUACACUUAAAUUUAAAAACGGGGAGCGCAGGCGCCACAACAGAGGAUUGAGCAUCA
B4: chr6:38652254:38652255:-_ENSG00000124767_ENST00000373365|hu_hu|hu_hu_hu_mus_False|8_68 (ssRNA)
RNA: GGGAGUUCUACAGUCCGACGAUCCGAGAACUUCAUAGCAGGGAAGUCAAGCUUCUGCAGGAGGGUCAUUCCAAGAACCCUCGUAUAAAAAUCCAGGGACUUCUUAGGAUCCUUAAUUCUUAGCAUCGUCUGCUGCAGUAGAAACAACAGAGGAUUGAGCAUCA
B5: chr1:244855233:244855234:+_ENSG00000121644_ENST00000302550|hu_mus|hu_hu_hu_mus_True|48_58 (ssRNA)
RNA: GGGAGUUCUACAGUCCGACGAUCCAUCAGAUGGUAGGCGUUGCCCUUAUACUCUUUCCCCAGUUCUUCUACAAUUUUUUCUAUAUCAUCUUCUAGGAAGUCCGUACUUCCUAGAACAACAGCUUCUUUAAAUUUAAAUGUUUCCAACAGAGGAUUGAGCAUCA
B6: chr2:216981417:216981418:+_ENSG00000079246_ENST00000392132|hu_hu|hu_hu_hu_mus_True|38_38 (ssRNA)
RNA: GGGAGUUCUACAGUCCGACGAUCCUGAUACUGGUCCUUGCCAGCAAGGGCAUUAUCAGUGCCAUCUGUGCCAUAGAGGACUAACGCAAUCUCAUCUUUGUUCUCAGAAAAUACCUGUCGUUGGACAAACAUAGUCAUCACUUUCAACAGAGGAUUGAGCAUCA
B7: chr8:21939936:21939937:+_ENSG00000158856_ENST00000443491|hu_hu|FALSE|FALSE (ssRNA)
RNA: GGGAGUUCUACAGUCCGACGAUCCCCCCAGCAUGGUCACACACACAGUGGAAAGGGAUGUCAGGGUCUGGGCAGGAGCAAUACCCAGACCUGGGCAAAAAUAUAGAUAUCAUUAUAUACACACGUGGACUGGAAAGAAGUCAACAACAGAGGAUUGAGCAUCA
B8: chr12:85018817:85018818:+_ENSMUSG00000010608_ENSMUST00000048155|mus_mus|FALSE|FALSE (ssRNA)
RNA: GGGAGUUCUACAGUCCGACGAUCUUCUGCUUCUUCAUCUAGUACCAUGGCAACAUCAUCUAAAAUGCUCUGUGGUGAACUAUGUGCCAUAACCUUAGAGCAAACAAAAUCAACUAAUGUAGCUUCUUCUUCACCUAUGUAUUCCAACAGAGGAUUGAGCAUCA
B9: chr9:100389865:100389866:-_ENSG00000136925_ENST00000341170|hu_hu|FALSE|FALSE (ssRNA)
RNA: GGGAGUUCUACAGUCCGACGAUCACAGUGAAGCAGAUAUUCCUUUCAGUUAAAUACCUCCCGCCAGUCCUGAUCCUUUCUAAGGUCUCUCUUCCCUGCACUGUCUCCGCCUAGCAAUUGUCACUGCUCACCGCCCUCGAGCCUCAACAGAGGAUUGAGCAUCA
B10: chr12:51141157:51141158:+_ENSG00000066084_ENST00000301180|hu_hu|FALSE|FALSE (ssRNA)
RNA: GGGAGUUCUACAGUCCGACGAUCGGACAUGCAAAAGAUCAAUAAAGCAGAAAGCAAAAAAUAAAUUAGAGGCCUGAGGAACUACAAAACUAGAUAAUCAGCCUCUAAGUAAAUGGGAGUUGGCCACACUUUGAGAUUAACAGACAACAGAGGAUUGAGCAUCA
B11: chr5:128440902:128440903:+_ENSG00000066583_ENST00000173527|hu_mus|hu_hu_hu_mus_True|58_88 (ssRNA)
RNA: GGGAGUUCUACAGUCCGACGAUCUUGAACGGUGCUGCCAAGUCCUUUAGGGUAUUGUUCCGUUAUGAUAACUGGAAUUCCUAAAAUCCGAGCUCCUUGCAACAGUCUCUGUCCCACACUAAUGAUGUCCCCAAAGUAUUUGAUCAACAGAGGAUUGAGCAUCA
B12: chr3:176767854:176767855:-_ENSG00000177565_ENST00000430069|hu_hu|hu_hu_hu_mus_False|58_98 (ssRNA)
RNA: GGGAGUUCUACAGUCCGACGAUCGACAUCCUUGUUACUUGGAACAUCCUGCCCUCCUUCCCGUAUGCAGUGUCUAAGUACUAACUGCGUAGGGCCACUCGUGCUGUUCUCACUGAGGUUCCAGAUUCUUGCCGUGGAGUCUCCCAACAGAGGAUUGAGCAUCA
B13: chr4:115894766:115894767:+_ENSMUSG00000028698_ENSMUST00000030464|mus_hu|mus_mus_mus_hu_True|48_68 (ssRNA)
RNA: GGGAGUUCUACAGUCCGACGAUCUUCCACACGGAAAUGUACUUCGGGUUUUCCAACGGCCAGUACCGUCCAGCCAAAACUACCCGAUGAGGACAAGCCCCCUCUCUCCUACAGAACACAACAAAAUGCCCCCGAACUUUCAAGCAACAGAGGAUUGAGCAUCA
B14: 129744135_129744255_509_CDS_ENSMUSG00000001052_ENSMUST00000001079|mouse|control|control (ssRNA)
RNA: GGGAGUUCUACAGUCCGACGAUCAGGACCUCUGCCAUACAUCUGCUGUGCUCCUGGUUGGUUUGCUGAGCUGGGAGUCCCCGAAUUUUGUGUUGGUACUGUAUAUGGACGAGAGUAGUAACUAUCACACUGGCUAUCCAAUGGCAACAGAGGAUUGAGCAUCA

These binders were tested against T1, UNK ZnF1-3 (assay: nsRBNS (natural sequence RNA bind-n-seq); RBNS binding buffer (assumed for nsRBNS): 25 mM Tris pH 7.5, 150 mM KCl, 3 mM MgCl2, 0.01% Triton X-100, 500 ug/ml BSA, 20 U/ml SUPERase-In, 4 C; UNK is unkempt and MSI1 is Musashi-1; names of the RNAs are library labels; protein concentration not given here; high values mean tight binding).

Row | Binder | binding signal
1 | B1 | 0.956 enrichment R
2 | B2 | 0.656 enrichment R
3 | B3 | 2 enrichment R
4 | B4 | 0.692 enrichment R
5 | B5 | 1.32 enrichment R
6 | B6 | 0.612 enrichment R
7 | B7 | 2.23 enrichment R
8 | B8 | 1.2 enrichment R
9 | B9 | 0.915 enrichment R
10 | B10 | 1.34 enrichment R
11 | B11 | 0.955 enrichment R
12 | B12 | 0.734 enrichment R
13 | B13 | 1.19 enrichment R
14 | B14 | 0.992 enrichment R
